From PubChem BioAssay AID493169 (National Center for Advancing Translational Sciences (NCATS), 2011)
This list was built around the results that the source calls inconclusive (neither active nor inactive); the mix of calls is not that of the screen. Potencies of inconclusive entries are doubtful fits and often do not repeat. Activity calls are given as the source filed them. The call rests on the fitted dose curve; in most records, active means well fitted inhibition curve with a large enough effect; inconclusive means small, poorly fitted or top-dose-only effect; inactive means flat fitted curve, though single readings scatter.
Potency means the concentration at half of the fitted maximal effect; tags describe the fitted curve by direction and shape.

Assay: CHOP2 Reporter Counterscreen Assay for Inhibitors of Ubiquitin-specific Protease USP2a;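 further: activated enterokinase alone at 50 pM in a cell-free format rather than USP2a or CHOP2; nearly all actives have a fitted effect of over 55% in size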
Settings: purified enterokinase, fluorogenic substrate, 485/531 nm; series mostly up to 38.3 µM
Source text: NIH Molecular Libraries Probe Centers Network [MLPCN] NIH Chemical Genomics Center [NCGC] MLPCN Grant: XO1-MH079852-01 PI Name: Nicholson, Ben. Progenra Inc, Malvern, PA NCGC Assay Overview: Homeostasis of cellular proteins is maintained through a combination of synthesis and degradation. The pathway that accounts for the majority of protein degradation is the ubiquitin-proteasomal pathway. Ubiquitin (Ub) is highly conserved in all cells and the generation of a multi-Ub chain typically targets proteins for degradation by the proteasome. However, ubiquitination is highly reversible and dynamic. Deubiquitination, the reverse process, is catalyzed through the action of enzymes referred to as isopeptidases or deubiquitinating enzymes (DUBs). This group of enzymes is collectively responsible for maintaining adequate pools of free ubiquitin and regulating the ubiquitination status of cellular proteins. The class of DUBs referred to as the ubiquitin-specific proteases (USP) family functions endoproteolytically to cleave Ub chains from a wide range of protein substrates. USP2a deubiquitinates fatty acid synthase (FASN) which has recently been identified as an emerging oncology target. To identify inhibitors of USP2a a cell-free assay was employed. This assay is a counterscreen against the reporter enzyme used to measure USP2a activity in the primary qHTS assay. The reporter enzyme is a protease (enterokinase, EK; EC 3.4.21.9), which is activated when a Ub sequence is cleaved by USP2a. The counterscreen assay is performed in the same buffer and conditions as the primary USP2a coupled assay but uses fully activated EK alone. The assay gives a fluorescent read-out at excitation/emission wavelengths of 485/531. The assay was provided by Progenra, Inc. and has been licensed for sale by LifeSensors, Inc.
NCGC Assay Protocol: The assay buffer, prepared fresh at the day of the assay, contains 20mM Tris-HCl pH 8.0, 2mM CaCl2, 2mM beta-Mercaptoethanol, 0.05% CHAPS. 3uL of 100 pM EK (50 pM final) was dispensed into a medium-binding black solid Kalypsys 1,536 well plate using the Kalypsys dispenser. The assay plate was then pinned with 23nL compounds in DMSO with the Kalypsys pintool in columns 5-48 (0.3% final DMSO concentration). The negative control was buffer/DMSO only in column 3. The assay plate is incubated at RT for 30min. Subsequently, 3uL of reporter substrate (25nM final) were dispensed into the plate using the Kalypsys dispenser. Plates were read after 10 min at RT on a ViewLux (Perkin Elmer) plate reader using the following wavelengths: Ex 485nm /Em 531nm. Data were normalized to the AC100 inhibition (buffer alone). Concentration-response curves were fitted to the normalized data and the concentration-response curves were then classified based on curve quality (r2), response magnitude and degree of measured activity. The time zero reading was used to flag fluorescence artifacts.
For `Cc1ccc(SCC(=O)Nc2ccc(C(=O)Nc3ccc(O)cc3)cc2)cc1`, the Potency was inconclusive: 28.2 µM [inhibitor, single point].
With `O=C(Cc1ccc(S(=O)(=O)N2CCOCC2)s1)Nc1nc2c(s1)CCCC2` the Potency was active: 10 µM.
With `O=C(c1cc(-c2ccco2)on1)N1CCc2ccccc2C1` the Potency was inconclusive: 8.91 µM [inhibitor, partial curve, poor fit].
For `CCC(C)Cn1c(O)cc2nn(-c3nc4ccccc4s3)c(=O)c-2c1C` (stereo not given), the Potency was inconclusive: 22.4 µM [inhibitor, single point].
In the case of `O=C(Cc1ccc(S(=O)(=O)N2CCOCC2)s1)NCCC(c1ccccc1)c1ccccc1`, the Potency was inconclusive: 20 µM [inhibitor, partial curve, poor fit].
In the case of `O=C(c1ccccc1)c1ccc2nc(-c3ccco3)c(-c3ccco3)nc2c1`, the Potency was inconclusive: 20 µM [inhibitor, partial curve, poor fit].
In the case of `CN1CCN(CCC(=O)N/N=C/c2cc([N+](=O)[O-])ccc2O)CC1`, the Potency was inconclusive: 28.2 µM [inhibitor, single point].
In the case of `Cc1ccc(S(=O)(=O)Nc2ccccc2C(=O)Nc2nc(-c3ccc(F)cc3)cs2)cc1`, the Potency was inconclusive: 28.2 µM [inhibitor, single point].
With `Cc1ccc(S(=O)(=O)N2[C@@H](c3ccc(C(C)(C)C)cc3)C(C(=O)O)=CC[C@H]2c2ccc(Cl)cc2)cc1` the Potency was active: 10 µM.
For `Cc1ccc([C@@H]2CC=C(C(=O)O)[C@H](c3ccc(C(C)(C)C)cc3)N2S(=O)(=O)c2ccc(C)cc2)cc1`, the Potency was inconclusive: 10 µM [inhibitor, partial curve, poor fit].
With `N#Cc1c(-c2cccs2)nc(SCc2ccc(Cl)cc2)[nH]c1=O` the Potency was “inactive”.
With `Cc1cccc(OCC(=O)Nc2ccc(N3CCCC3)cc2)c1C` the Potency was inconclusive: 22.4 µM [inhibitor, single point].
With `CN(C)c1ccc(C(CN)c2c[nH]c3ccccc23)cc1` (stereo not given) the Potency was inconclusive: 14.1 µM [inhibitor, single point].
In the case of `COc1ccc(CCNC(=O)COC(=O)CNS(=O)(=O)c2ccc(SC)c([N+](=O)[O-])c2)cc1`, the Potency was inconclusive: 28.2 µM [inhibitor, single point].
In the case of `Cn1c(C(=O)NCCCN2CCN(c3ccccc3F)CC2)cc2c(=O)n(C)c3ccccc3c21`, the Potency was “inactive”.
For `CCCCCCCCCCC[N+](C)(C)CC/C=C1/c2ccccc2Sc2ccc(Cl)cc21`, the Potency was active: 11.2 µM.
With `O=C1CC(=O)N(Cc2ccco2)C(=S)N1` the Potency was inconclusive: 5.01 µM [inhibitor, full curve].
In the case of `Cc1ccc2oc(=O)c3cnn(CC(=O)NCCCOC(C)C)c3c2c1`, the Potency was “inactive”.
With `COc1ccc(-c2nc(Cn3c(SCc4ccc(F)cc4)nc4ccncc43)c(C)o2)cc1OC` the Potency was “inactive”.
In the case of `CC(=O)OCC(=O)Nc1ccc(Cl)cc1Cl`, the Potency was “inactive”.
With `Cc1cc(C)c2c(N=CN(C)C)c(C(=O)N3CCN(c4ncccn4)CC3)sc2n1` the Potency was “inactive”.
For `Cc1ccc(/C(O)=C/C(=O)C(=O)NNC(=O)C(O)(c2ccccc2)c2ccccc2)cc1`, the Potency was inconclusive: 10 µM [inhibitor, single point].
For `N#CCC(=O)Nc1ccc(C(=O)OCC(=O)NCc2ccc3c(c2)OCO3)cc1`, the Potency was inconclusive: 28.2 µM [inhibitor, single point].
For `Cc1noc(/C=C/c2ccco2)c1S(=O)(=O)N1CCC(C(=O)N(C)Cc2ccccc2)CC1`, the Potency was inconclusive: 11.2 µM [inhibitor, single point].
With `CCN1C(=O)CSc2ccc(C(=O)NC3CCCCC3)cc21` the Potency was “inactive”.
In the case of `C[C@H](CO)N1C[C@H](C)[C@@H](CN(C)S(=O)(=O)c2cn(C)cn2)Oc2ccc(NC(=O)Cn3cnnn3)cc2C1=O`, the Potency was “inactive”.
With `Cc1ccc(CN2C(=O)N/C(=C\c3cccn3-c3cccc(C(=O)O)c3)C2=O)cc1` the Potency was inconclusive: 10 µM [inhibitor, single point].
In the case of `Cc1ccc(-c2ccc(CCC(=O)O)n2NC(=O)c2cccs2)cc1`, the Potency was “inactive”.
With `Nc1ccc2nc(-c3cccc(-c4nc5ccc(N)cc5[nH]4)c3)[nH]c2c1` the Potency was inconclusive: 11.2 µM [inhibitor, single point].
In the case of `Cc1ccc(-c2c(C)n([O-])c3c([n+]2=O)CCC3)o1`, the Potency was “inactive”.
With `CCc1cc(C(=O)N=Nc2c(O)[nH]c3ccc([N+](=O)[O-])cc23)c2ccccc2n1` the Potency was active: 8.91 µM.
In the case of `Oc1c(Cl)cc(Cl)c(Cl)c1Cc1c(O)c(Cl)cc(Cl)c1Cl`, the Potency was inconclusive: 12.6 µM [inhibitor, single point].
With `COc1ccccc1C(=O)N1CCN=C1SC` the Potency was “inactive”.
For `O=C(O)c1cccc(-n2cccc2/C=C2/NC(=O)N(c3ccc(Cl)cc3)C2=O)c1`, the Potency was active: 2 µM.
In the case of `COc1ccc2[nH]c(=O)c(CN(C3CCCCC3)C(c3nnnn3Cc3ccco3)C(C)C)cc2c1` (stereo not given), the Potency was active: 10 µM.
With `O=C(N/N=C/c1ccc(F)cc1)c1cc(-c2ccco2)nc2ccccc12` the Potency was active: 2.24 µM.
With `CC(C)c1ccc2c(c1)c(SC(C)(C)C)c(CC(C)(C)C(=O)O)n2Cc1ccc(Cl)cc1` the Potency was inconclusive: 12.6 µM [inhibitor, single point].
With `COc1ccc(/C=C\C(=O)O[C@@H]2C(O)C(O[C@@H]3OC(C)[C@H](O[C@@H]4OCC(O[C@H]5O[C@H](CO)[C@@H](O)C(O)C5O)C(O)C4O)C(O)C3O)[C@H](OC(=O)[C@]34CCC(C)(C)C[C@@H]3C3=CCC5[C@@]6(C)CC(O)C(O[C@@H]7OC(CO)C(O)[C@H](O)[C@H]7O)[C@@](C)(C(=O)O)C6CC[C@@]5(C)[C@]3(CO)CC4)O[C@H]2C)cc1` (stereo not given in full) the Potency was “inactive”.
In the case of `O=C1c2ccccc2C(=O)N1CCC1=CCCCC1`, the Potency was “inactive”.
In the case of `CN(C)c1ccc(NC(=O)CSCc2nc3c(nnn3Cc3ccc(F)cc3)c(=O)[nH]2)cc1`, the Potency was inconclusive: 22.4 µM [inhibitor, single point].
